Test results reported in paper PMC7819943, “Rice protein-binding microarrays: a tool to detect cis-acting elements near promoter regions in rice”.
The other results are listed elsewhere or left out.

Molecular target: T1, OsWOX13 (Oryza sativa, UniProt Q5QMM3 1-267)
T1 sequence: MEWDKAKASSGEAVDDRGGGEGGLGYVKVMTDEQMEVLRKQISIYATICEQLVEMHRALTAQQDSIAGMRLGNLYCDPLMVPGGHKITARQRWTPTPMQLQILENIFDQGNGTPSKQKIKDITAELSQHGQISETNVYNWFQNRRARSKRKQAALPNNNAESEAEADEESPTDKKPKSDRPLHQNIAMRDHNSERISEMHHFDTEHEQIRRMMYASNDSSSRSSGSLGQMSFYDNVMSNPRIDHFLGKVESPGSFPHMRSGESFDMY
Assay: protein-binding microarray (RPBM); PBS, 2% BSA, 51.3 ng/ul salmon testes DNA, 50 uM zinc acetate, 200 nM TF, 25 C, 1 h; high values mean tight binding
Conditions: protein: recombinant; tags: N-terminal polyhistidine and DsRed monomer fusion (pET32a); label: CyDye5-dUTP incorporated in the synthesized complementary strand; 3' TTTTT single-stranded linker to array surface; dsDNA, one strand shown
Method in brief: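 Ni–NTA purification followed expression in E. coli BL21-CodonPlus of transcription factors fused N-terminally to a polyhistidine tag and DsRed. At 200 nM in PBS with 2% BSA, salmon testes DNA and 50 µM zinc acetate, the protein was incubated for 1 h at 25 °C with a custom Agilent array that had been primer-extended with Cy5-dUTP and blocked with 2% BSA. After washing, the array was read on an Axon 4000B scanner. The binding signal is per-feature fluorescence intensity in arbitrary units.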

Question: How did the binding signal turn out when “GCCTCTCCACCAATCAGCGCCCACTTTTACCCACTATAAACGGAGTCACCTAGTGCAG” was run?
Answer: The binding signal was 4900 fluorescence intensity (a.u.).

Question: For “TGTGCATGAATTAATTACAATCTTCCATTGGATGAAAGTGCGGAGTCACCTAGTGCAG”, which binding signal is on record?
Answer: The binding signal was 12300 fluorescence intensity (a.u.).

Question: “ATAATTGCCACCAAAATCTTAGACGTGAGTTTCAAATGAGCGGAGTCACCTAGTGCAG” was tested. Which binding signal did it give?
Answer: The binding signal was 14200 fluorescence intensity (a.u.).

Question: “CCGGCCTATATATTAATTAATTATATACAGTAAATTATTTCGGAGTCACCTAGTGCAG” was tested. Which binding signal did it give?
Answer: Its binding signal is 12500 fluorescence intensity (a.u.).

Question: For “GTACTAATATAAGGTGAGTTCTAAATGGTAGACATCCTTTCGGAGTCACCTAGTGCAG”, which binding signal is on record?
Answer: Its binding signal is 33700 fluorescence intensity (a.u.).

Question: Which binding signal does the source give for “AAAATTAAATTGATGGTATTACTAGCATTAATTAGCCACTCGGAGTCACCTAGTGCAG” here?
Answer: Its binding signal is 62800 fluorescence intensity (a.u.).

Question: Which binding signal does the source give for “GTCCCACAGAAATGATTGAGGGAAGAGTAAAACCTTCAAGCGGAGTCACCTAGTGCAG” here?
Answer: The binding signal was 17700 fluorescence intensity (a.u.).

Question: How did the binding signal turn out when “GGAAAAGGAGATTGGCAGCGAGTGGCGTACCAGCTGTTGGCGGAGTCACCTAGTGCAG” was run?
Answer: Its binding signal is 5660 fluorescence intensity (a.u.).

Question: For “GTTGCATATCAATCATCAAGAATCTCTTCAGAAAGAGGAGCGGAGTCACCTAGTGCAG”, which binding signal is on record?
Answer: Its binding signal is 14000 fluorescence intensity (a.u.).

Question: How did the binding signal turn out when “CCAACATGATTTTGGCCCGTCAAGCGATACGTCGAAATCGCGGAGTCACCTAGTGCAG” was run?
Answer: Its binding signal is 4470 fluorescence intensity (a.u.).

Question: How did the binding signal turn out when “AAAATTGACTGTACAATGACATTTTGTAGAACTTGCACTCCGGAGTCACCTAGTGCAG” was run?
Answer: The binding signal was 31200 fluorescence intensity (a.u.).

Question: Which binding signal does the source give for “CCAAATATTTGACGTGACAGCATGAAAATTTTCGTTTTGGCGGAGTCACCTAGTGCAG” here?
Answer: The binding signal was 5470 fluorescence intensity (a.u.).

Question: Which binding signal does the source give for “TTTATATCGATCTAATAGATGGATTGGTTTTGAGATTGTTCGGAGTCACCTAGTGCAG” here?
Answer: Its binding signal is 5170 fluorescence intensity (a.u.).

Question: “CCTAACTGGACCTCTATTTTGGAAGGGCTATCTCTGAACTCGGAGTCACCTAGTGCAG” was tested. Which binding signal did it give?
Answer: Its binding signal is 4960 fluorescence intensity (a.u.).

Question: Which binding signal does the source give for “TGTAAGACATAAATTATGCCAGCAATAAACATACCATTGTCGGAGTCACCTAGTGCAG” here?
Answer: Its binding signal is 6810 fluorescence intensity (a.u.).

Question: How did the binding signal turn out when “ATATAATTCAAATTCAAATTTGAATCGGGTATATAAACTTCGGAGTCACCTAGTGCAG” was run?
Answer: Its binding signal is 3670 fluorescence intensity (a.u.).

Question: “AACTACTAACTGATTATTCCCAGTTTCACATTAAAGAATGCGGAGTCACCTAGTGCAG” was tested. Which binding signal did it give?
Answer: The binding signal was 15900 fluorescence intensity (a.u.).

Question: Which binding signal does the source give for “AGGAGCATATCTAATTGCTCTAATTGAATTCGATCAGTGTCGGAGTCACCTAGTGCAG” here?
Answer: The binding signal was 25200 fluorescence intensity (a.u.).

Question: Which binding signal does the source give for “CCAAATTGAAACTCTTGTCGTCCTCACCTGGAAGGAACCCCGGAGTCACCTAGTGCAG” here?
Answer: The binding signal was 37400 fluorescence intensity (a.u.).

Question: For “AATCAATAGTCAATGTGATTGATTCTATACTTTTATTTAACGGAGTCACCTAGTGCAG”, which binding signal is on record?
Answer: The binding signal was 10900 fluorescence intensity (a.u.).

Question: “TGATTGTAACTGGATGACATGGACTATGTTTTGATGAATTCGGAGTCACCTAGTGCAG” was tested. Which binding signal did it give?
Answer: The binding signal was 3340 fluorescence intensity (a.u.).

Question: “TCGTGACTAACTAATGACAGAATCAACTGAAAACGACCATCGGAGTCACCTAGTGCAG” was tested. Which binding signal did it give?
Answer: The binding signal was 13900 fluorescence intensity (a.u.).

Question: “ATTTAAATTAGGTAATTAGTAAATTCAAATCAACTATAGTCGGAGTCACCTAGTGCAG” was tested. Which binding signal did it give?
Answer: Its binding signal is 33800 fluorescence intensity (a.u.).

Question: “CCATTTCAACAGTTAATTTAGGCTATTTTGGTTTCAATCCCGGAGTCACCTAGTGCAG” was tested. Which binding signal did it give?
Answer: Its binding signal is 3840 fluorescence intensity (a.u.).

Question: For “TTAATAGATAGCACACGAAAACAAATATATTGAGAACATGCGGAGTCACCTAGTGCAG”, which binding signal is on record?
Answer: Its binding signal is 4200 fluorescence intensity (a.u.).

Question: How did the binding signal turn out when “AGTGATGACTGATCTATCAACCAAACCAACTCCCAACTCCCGGAGTCACCTAGTGCAG” was run?
Answer: The binding signal was 25100 fluorescence intensity (a.u.).

Question: “AGAAATTAAACTCTAACTAGTATACGTATATTCACAGTCACGGAGTCACCTAGTGCAG” was tested. Which binding signal did it give?
Answer: The binding signal was 4760 fluorescence intensity (a.u.).

Question: With “ATATTTGACCAGAAATTAACGCTGCTGATGCGAGGTCAAACGGAGTCACCTAGTGCAG” as the sequence, how does the binding signal read?
Answer: Its binding signal is 4830 fluorescence intensity (a.u.).

Question: Which binding signal does the source give for “CTCTGATTAGATGGGTTATAAAGCATGACACTGATAATTTCGGAGTCACCTAGTGCAG” here?
Answer: Its binding signal is 24500 fluorescence intensity (a.u.).

Question: How did the binding signal turn out when “ATTTGATTCGCTTAATGTAAAGAAGTTTGATGGTAAGCTCCGGAGTCACCTAGTGCAG” was run?
Answer: The binding signal was 4390 fluorescence intensity (a.u.).

Question: “AGAAATATATCGATCAATCAAATTTTGGCATGTATGTGAGCGGAGTCACCTAGTGCAG” was tested. Which binding signal did it give?
Answer: Its binding signal is 10600 fluorescence intensity (a.u.).

Question: How did the binding signal turn out when “ACCAAATTAAAATGTACCCCTCTTCTTCCTACAAGTAGTACGGAGTCACCTAGTGCAG” was run?
Answer: Its binding signal is 7140 fluorescence intensity (a.u.).

Question: How did the binding signal turn out when “GCTAATAACGGATTAATTAGACTTAATATATTCGTCTTTTCGGAGTCACCTAGTGCAG” was run?
Answer: Its binding signal is 16100 fluorescence intensity (a.u.).

Question: How did the binding signal turn out when “GTTGATTAATATATAAGGTAGTTATGGTTATATCCGAACTCGGAGTCACCTAGTGCAG” was run?
Answer: The binding signal was 29100 fluorescence intensity (a.u.).

Question: Which binding signal does the source give for “ATTAATTAAAGCTAATTAAACGATGTTGTTTATTAGGCTTCGGAGTCACCTAGTGCAG” here?
Answer: The binding signal was 58700 fluorescence intensity (a.u.).

Question: For “ACCCTTTAATTTATATTCATTGTAATCTAACGGTGTAGCTCGGAGTCACCTAGTGCAG”, which binding signal is on record?
Answer: The binding signal was 29200 fluorescence intensity (a.u.).

Question: With “TTAGATTGAAATTTTATATAGCCATAGACAACACGATTATCGGAGTCACCTAGTGCAG” as the sequence, how does the binding signal read?
Answer: The binding signal was 27800 fluorescence intensity (a.u.).

Question: Which binding signal does the source give for “TCCTTTTACAATCCAGTTGCAATCATGTACAAGTTGCAGTCGGAGTCACCTAGTGCAG” here?
Answer: The binding signal was 3560 fluorescence intensity (a.u.).

Question: Which binding signal does the source give for “GATGGATTGTTCACTGATTTCACTGGATCCCTGCACCGTTCGGAGTCACCTAGTGCAG” here?
Answer: Its binding signal is 6650 fluorescence intensity (a.u.).

Question: For “CGTCGATTAATTTCCCTGGTAAATACGAAATGTTCATGGTCGGAGTCACCTAGTGCAG”, which binding signal is on record?
Answer: Its binding signal is 18700 fluorescence intensity (a.u.).

Question: How did the binding signal turn out when “TAGGAATCAATCATATTATTCATGTTCATTAAAATTTAAGCGGAGTCACCTAGTGCAG” was run?
Answer: The binding signal was 5000 fluorescence intensity (a.u.).

Question: How did the binding signal turn out when “ATATTAACGTATAATTAATTTAAGTTTTAATTATTATAAACGGAGTCACCTAGTGCAG” was run?
Answer: Its binding signal is 27800 fluorescence intensity (a.u.).
